In all, about 81,000 sequences were measured (“one-hybrid fitness for binding parS DNA”: median about -0.17, highest 2% from about 0.51 on). The list shows a part of the results.

To fix the notation:
B1: Caulobacter ParB omega fusion; a variant is named by its letters at X, in order, B8GW30 (parent)
chain: MESVVVGEPGMSEGRRGLGRGLSALLGEVDAAPAQAPGEQLGGSREAPIEILQRNPDQPRRTFREEDLEDLSNSIREKGVLQPILVRPSPDTAGEYQIVAGERAWRAAQRAGLKTVPIMVRELDDLAVLEIGIIENVQRADLNVLEEALSYKVLMEKFERTQENIAQTIGKSXSHVANXMRLLXLPDEVQSYLVSGELTAXHARAIAAAADPVALAKQIIEGGLSVRETEALARKAPNLSAGKSKGGRPPRVKDTDTQALESDLSSVLGLDVSIDHRGSTGTLTITYATLEQLDDLCNRLTRGI

The variants in the test derive from B1. The test is described as follows: one-hybrid fitness for binding parS DNA (scaled: cognate 1, non-cognate 0); higher = stronger binding. Particulars: with parS DNA site. The procedure, abridged: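 On M9-minus-histidine containing 0.1 mM IPTG and 5 mM 3-AT, E. coli USO cells with a HIS3 reporter, site 19 bp from the promoter, grew 48 hours at 37°C to select Caulobacter ParB libraries randomised at four specificity codons. Plasmids from before and after were Illumina-sequenced, with three replicate libraries pooled and variants under 10 reads left out. Fitness is the log change in variant-to-wild-type read ratio, rescaled against cognate and non-cognate.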
As to PVTP, the “one-hybrid fitness for binding parS DNA” value is at most 0.2.

Consider EPGG, for which the “one-hybrid fitness for binding parS DNA” value is at most 0.2.

Take GKKW: the “one-hybrid fitness for binding parS DNA” value is at most 0.2.

For HHIS, the “one-hybrid fitness for binding parS DNA” value was at most 0.2.

With ITNQ, the “one-hybrid fitness for binding parS DNA” value was at most 0.2.

As to RVVK, the “one-hybrid fitness for binding parS DNA” value was at most 0.2.

For PTQP, the “one-hybrid fitness for binding parS DNA” value is at most 0.2.

For FKNG, the “one-hybrid fitness for binding parS DNA” value is at most 0.2.

For VQHG, the “one-hybrid fitness for binding parS DNA” value was at most 0.2.

Turning to NCDT, the “one-hybrid fitness for binding parS DNA” value was at most 0.2.

As for GTAV, the “one-hybrid fitness for binding parS DNA” value was at most 0.2.

Turning to WTNF, the “one-hybrid fitness for binding parS DNA” value is at most 0.2.

Consider NVRY, for which the “one-hybrid fitness for binding parS DNA” value is at most 0.2.

In the case of MQHN, the “one-hybrid fitness for binding parS DNA” value is at most 0.2.

For the variant HEKE, the “one-hybrid fitness for binding parS DNA” value was at most 0.2.

Take LPFV: the “one-hybrid fitness for binding parS DNA” value is at most 0.2.

Consider CTRD, for which the “one-hybrid fitness for binding parS DNA” value was at most 0.2.

As to QRTK, the “one-hybrid fitness for binding parS DNA” value was at most 0.2.

Turning to SYSV, the “one-hybrid fitness for binding parS DNA” value was at most 0.2.

For the variant NAKC, the “one-hybrid fitness for binding parS DNA” value was at most 0.2.

Regarding YQPT, the “one-hybrid fitness for binding parS DNA” value was at most 0.2.

YGTM: the “one-hybrid fitness for binding parS DNA” value was at most 0.2.

With PIFE, the “one-hybrid fitness for binding parS DNA” value was at most 0.2.

As for SERD, the “one-hybrid fitness for binding parS DNA” value was at most 0.2.

Take PYHP: the “one-hybrid fitness for binding parS DNA” value is at most 0.2.

For the variant MYHR, the “one-hybrid fitness for binding parS DNA” value is at most 0.2.

YTSP: the “one-hybrid fitness for binding parS DNA” value was at most 0.2.

For GDAR, the “one-hybrid fitness for binding parS DNA” value is at most 0.2.

Take LSDA: the “one-hybrid fitness for binding parS DNA” value was at most 0.2.

As to IIGF, the “one-hybrid fitness for binding parS DNA” value was at most 0.2.

Turning to HTMG, the “one-hybrid fitness for binding parS DNA” value is at most 0.2.

On to RHVV, for which the “one-hybrid fitness for binding parS DNA” value was at most 0.2.

On to TWNL, for which the “one-hybrid fitness for binding parS DNA” value was at most 0.2.

With RNRT, the “one-hybrid fitness for binding parS DNA” value turned out to be 0.786.

Take GMVG: the “one-hybrid fitness for binding parS DNA” value was at most 0.2.

As for GSHG, the “one-hybrid fitness for binding parS DNA” value was at most 0.2.

Take ANSV: the “one-hybrid fitness for binding parS DNA” value was at most 0.2.

On to AVLK, for which the “one-hybrid fitness for binding parS DNA” value was at most 0.2.

In the case of QIIS, the “one-hybrid fitness for binding parS DNA” value is at most 0.2.

For the variant TNST, the “one-hybrid fitness for binding parS DNA” value is at most 0.2.

Consider GENQ, for which the “one-hybrid fitness for binding parS DNA” value was at most 0.2.

In the case of FKLR, the “one-hybrid fitness for binding parS DNA” value was at most 0.2.

For PWVS, the “one-hybrid fitness for binding parS DNA” value is at most 0.2.

Take ESTQ: the “one-hybrid fitness for binding parS DNA” value is at most 0.2.

For the variant QAEP, the “one-hybrid fitness for binding parS DNA” value is at most 0.2.

VKDG: the “one-hybrid fitness for binding parS DNA” value was at most 0.2.

Regarding DERG, the “one-hybrid fitness for binding parS DNA” value was at most 0.2.

For the variant RKGK, the “one-hybrid fitness for binding parS DNA” value was at most 0.2.

Regarding QFTC, the “one-hybrid fitness for binding parS DNA” value is at most 0.2.

Regarding SQQT, the “one-hybrid fitness for binding parS DNA” value is at most 0.2.

Consider DQSG, for which the “one-hybrid fitness for binding parS DNA” value was at most 0.2.

As to LMHV, the “one-hybrid fitness for binding parS DNA” value was at most 0.2.

In the case of QIAF, the “one-hybrid fitness for binding parS DNA” value was at most 0.2.

On to KQTD, for which the “one-hybrid fitness for binding parS DNA” value is at most 0.2.

Regarding RIVH, the “one-hybrid fitness for binding parS DNA” value was at most 0.2.

On to KNYR, for which the “one-hybrid fitness for binding parS DNA” value was at most 0.2.

Regarding KNLK, the “one-hybrid fitness for binding parS DNA” value is at most 0.2.

For FQDR, the “one-hybrid fitness for binding parS DNA” value was at most 0.2.

With CFHV, the “one-hybrid fitness for binding parS DNA” value is at most 0.2.

As to KYKG, the “one-hybrid fitness for binding parS DNA” value is at most 0.2.

VEIC: the “one-hybrid fitness for binding parS DNA” value was at most 0.2.

As for MGCL, the “one-hybrid fitness for binding parS DNA” value is at most 0.2.

For NDNN, the “one-hybrid fitness for binding parS DNA” value is at most 0.2.

As to LDQL, the “one-hybrid fitness for binding parS DNA” value was at most 0.2.

On to HNLA, for which the “one-hybrid fitness for binding parS DNA” value is at most 0.2.

Turning to CTEA, the “one-hybrid fitness for binding parS DNA” value was at most 0.2.

With YAQG, the “one-hybrid fitness for binding parS DNA” value is at most 0.2.

As for VGMG, the “one-hybrid fitness for binding parS DNA” value is at most 0.2.

As for RMTG, the “one-hybrid fitness for binding parS DNA” value amounted to 1.02.

For RTDR, the “one-hybrid fitness for binding parS DNA” value was at most 0.2.

In the case of SQRV, the “one-hybrid fitness for binding parS DNA” value was at most 0.2.

As for CTCE, the “one-hybrid fitness for binding parS DNA” value was at most 0.2.

As to WTIC, the “one-hybrid fitness for binding parS DNA” value was at most 0.2.

As for SQVH, the “one-hybrid fitness for binding parS DNA” value is at most 0.2.

On to WQNS, for which the “one-hybrid fitness for binding parS DNA” value was at most 0.2.

For WFPS, the “one-hybrid fitness for binding parS DNA” value is at most 0.2.

For IGDS, the “one-hybrid fitness for binding parS DNA” value is 0.213.

As to PEAS, the “one-hybrid fitness for binding parS DNA” value is at most 0.2.

Regarding QTEV, the “one-hybrid fitness for binding parS DNA” value was at most 0.2.

In the case of HLTK, the “one-hybrid fitness for binding parS DNA” value was at most 0.2.

For the variant PECV, the “one-hybrid fitness for binding parS DNA” value is at most 0.2.

Take MLKS: the “one-hybrid fitness for binding parS DNA” value is at most 0.2.

For the variant YGST, the “one-hybrid fitness for binding parS DNA” value is at most 0.2.

For RMMY, the “one-hybrid fitness for binding parS DNA” value turned out to be 0.506.

The values above are taken from a collection of fitness landscapes (doi:10.1016/j.celrep.2020.107928).
